± gives the standard deviation of the averaged measurements. This is one part of the list.
These sequences were tested on PfAP2-EXP AP2 domain (GST-tagged) (assay: gcPBM binding intensity (ln(normalized median fluorescence intensity)); higher = stronger DNA binding).
In short: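 Binding of GST-tagged P. falciparum DNA-binding domains, expressed in E. coli and used at about 25 μg on average, was carried out for 1 h in 1× PBS containing 1% milk, 0.2 mg/ml BSA, 0.5% salmon testes DNA and 0.03% Triton X-100. The target was an Agilent 4 × 180k array of primer-extended double-stranded 36-bp intergenic genomic probes plus negative controls, read with Alexa488 anti-GST antibody at 488 nm. Binding intensity is the highest Masliner-normalised natural-log median intensity across replicate spots of either probe orientation.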

Row | Sequence | gcPBM binding intensity (ln)
1 | AATGAAGACTTTTTTACACACTTCATATCTTATAGA [CACACA_site7046] | 8.71 ± 0.55
2 | AATATTTTTAATTAATGTACATATTTATTATATAAA [XGTACX_site5112] | 8.52 ± 0.33
3 | AAATTTTTTCCGATTTGTACTTATATTTCTTTATTA [XGTACX_site1762] | 8.71 ± 0.5
4 | TTTTAACGTAATTCAAATGAGCAGAATTTTTTAAAA [CACACA_negctrl_site1800] | 8.15 ± 0.54
5 | TTTTTATGAATTCTTTTGTTAATAATAATATGTTGT [TGCATGCA_negctrl_site198] | 8.39 ± 0.38
6 | AAAAAAAAGAAAAACACACACATATTTATTTATAAC [CACACA_site6600] | 8.6 ± 0.49
7 | TAAATAAATTTATGTACACACACAAATAAATACATA [CACACA_site5107] | 8.63 ± 0.27
8 | TATATATTAAATTATAGTACACATTATATATAATTA [XGTACX_site4841] | 8.38 ± 0.25
9 | TATATATATATATATAGTACACATATCACATAAATG [XGTACX_site6379] | 10.2 ± 0.23
10 | ATAATATATGTATGTATGCACTTTTATTATTTTTTT | 8.45 ± 0.36
11 | ATAATATATATATTTTGTACACATGAAAAGGAGGAT [XGTACX_site5034] | 9.21 ± 0.47
12 | AATAAACATTATTTTCGTATTCCAATTCTTTTTTTT [XGTACX_negctrl_site374] | 8.09 ± 0.18
13 | TTGATAAAATCACTGGTGCATGTAGATATATAATAT | 8.84 ± 0.13
14 | TTTTTTTAAAACAAAAAAAAAAAAAAAAAAAAAAAA [TGCATGCA_negctrl_site418] | 7.96 ± 0.39
15 | TTCTTTTTTATTTATACATGCAATAAAAAATTGATT [TGCATGCA_site730] | 8.81 ± 0.27
16 | AAGAGAGAGAAATATGCACACATAAGGGAAATAAAT [CACACA_site8300] | 8.61 ± 0.13
17 | TATATATGTATGTATGTACACACAAAAAATGGAATA [CACACA_site9235] | 8.96 ± 0.42
18 | TTATTATTAGAAAAAAGTACACATATAAAATGTTAC [XGTACX_site6426] | 8.29 ± 0.38
19 | GGATACATATGTAAAAGTACACATGAATATATACAT [XGTACX_site6469] | 8.61 ± 0.31
20 | GTAAAATTAAAAATAACACACAAAAAAAAAAAAAAA [CACACA_site800] | 8.18 ± 0.44
21 | AAAAAAAAAAGAAAAAGTACATACATACATATATAT [XGTACX_site6405] | 8.46 ± 0.36
22 | TTTTAATTAGTACAAACACACATATACAGACAAAAA [CACACA_site2563] | 8.98 ± 0.45

Row | Sequence | gcPBM binding intensity (ln)
23 | AGACGATAAATCATTCATTCATTTACCATCCAAAAA [CACACA_negctrl_site802] | 8.43 ± 0.47
24 | TAATATAGAAAATGCATACACACTTTATATATATAT [CACACA_site911] | 9.66 ± 0.26
25 | TACTATTATTATTGCACACTTATTATCCCTCGGATA [CACACA_site162] | 8.91 ± 0.092
26 | TGATCATAGAAACACACACACAAAAAAAAAAAAAAA [CACACA_site4008] | 7.98 ± 0.49
27 | AATATATATTAATACACACACACATATATATATATA [CACACA_site3786] | 10.1 ± 0.47
28 | AAAATTTTTTTTGGCGCACACTAATAATAAAATATA [CACACA_site470] | 8.6 ± 0.35
29 | AAATATTATTGACGATGTACTTCTATTCATAAGTAT [XGTACX_site3964] | 8.46 ± 0.5
30 | GAATAATATGGACATACACACATATACATACCTATA [CACACA_site7075] | 8.79 ± 0.28
31 | CTTTTTAATGAATACACACACACACCGATATATATA [CACACA_site5296] | 8.79 ± 0.52
32 | TAAAACTTATACAAATGTACAAATATATATATATAT [XGTACX_site4661] | 10 ± 0.47
33 | TATAACAAAAAAAAATAAAAAATAAAACTATATATA [CACACA_negctrl_site504] | 8.31 ± 0.45
34 | ACCTAAAATAACTACACACACATAAAAAAAAAAAAA [CACACA_site2529] | 8.27 ± 0.62
35 | TTTTTTTTTTATTCTTCACACATTTCCAATAAAAAA [CACACA_site5601] | 8.83 ± 0.48
36 | GTTATTATATATATGTGTACTTAAAAATTTTATGTC [XGTACX_site6084] | 8.93 ± 0.25
37 | AAAAAAAAAAAAAAAACACACAGAAATATATATATA [CACACA_site4611] | 9.54 ± 0.21
38 | AAAGAAGGGAAACACACACACACACCCACAAAAAAA [CACACA_site3766] | 8.68 ± 0.49
39 | TGTATATATATTTATGCATGCTGTGTGTATTCTTTT [TGCATGCA_site74] | 9.52 ± 0.4
40 | TTTATATATTTTAGGAGTACATTAAATTATACCTTA [XGTACX_site5600] | 8.18 ± 0.24
41 | AATAAAAAAAAAATAAATTTAATAATAATAATAAAA [CACACA_negctrl_site569] | 8.23 ± 0.33
42 | ATTAATATTTAGACTTGTACATATATAATATATGTC [XGTACX_site3766] | 8.47 ± 0.35
43 | CTTTTTTGTAATAACACACACACAAACAGAAAAAAT [CACACA_site2075] | 9.1 ± 0.57
44 | ATAAAATATCAATACCGTACACAAGCAGGTAAAATA [XGTACX_site3719] | 8.68 ± 0.37

Row | Sequence | gcPBM binding intensity (ln)
45 | TCCTTTTGAACCCTTTTTCTCACAAGACCTTTATAT [TGCATGCA_negctrl_site413] | 8.79 ± 0.35
46 | TTTCGTTGTGTATTTTGTACATATTTTTAATTATAT [XGTACX_site6687] | 8.89 ± 0.42
47 | TTAAAAAACTATAATACACACCAAAAATATGCACAT [CACACA_site7079] | 8.94 ± 0.32
48 | AATATAAATATAAATTGTACTTAAAAATTTCACGCA [XGTACX_site5234] | 8.19 ± 0.24
49 | TTATTTCAAAGTTGTTGTACAAAAATATATTTATAA [XGTACX_site5226] | 8.63 ± 0.43
50 | TTTCTTTTTTAAATTAAAATTTTTTTTTTTTTCGGT [TGCATGCA_negctrl_site52] | 8.29 ± 0.49
51 | AAGAAAAAGATGCGCATACACACAGATGAATAACAA [CACACA_site1627] | 9.05 ± 0.66
52 | TATATAAATTATGTGAGTACATAATTTAGAAGGAAC [XGTACX_site2807] | 8.93 ± 0.34
53 | AAAGGTGTATTTAATACACACGTGTCATTAAAATTG [CACACA_site4508] | 8.38 ± 0.38
54 | AATTAAAAAGTTTTTAATGTTTTTAATTTTTTCCAC [XGTACX_negctrl_site423] | 8.27 ± 0.33
55 | AAAAAAATAATGTACACACACATATATGTTTATATA [CACACA_site6234] | 8.56 ± 0.31
56 | TAATTATTTTCGGTACGTACTAATGTATATATAATT [XGTACX_site3895] | 8.67 ± 0.42
57 | TAATAATTTTTTTTTTTTTTTTACGAAAATATGATT [GTGCAC_negctrl_site323] | 8.04 ± 0.54
58 | ATAATAAGAACTCAGTGTACTATCCTTTGAATTAAC [XGTACX_site8117] | 8.27 ± 0.33
59 | AACGTCTTTTTTTTTTTTTTTCTTTTTTTTTTTATT [CACACA_negctrl_site303] | 8.3 ± 0.51
60 | AGATATAAGAAAAGCACACACACACTAGAAAAAAAA [CACACA_site5559] | 8.93 ± 0.66
61 | TAATTCTTGTAAAATGTGCGCAGTAGATATAGTTTT | 8.85 ± 0.33
62 | ATAAAATTATATACGTGTACATATATATATTTATGT [XGTACX_site4653] | 8.39 ± 0.31
63 | ATATTTATTCAATCCAGTACATATTATATATTGTAT [XGTACX_site184] | 8.59 ± 0.3
64 | CCTTTAAGCAAAAACACACACACATATTTATTTATA [CACACA_site6294] | 8.45 ± 0.46
65 | AATTTTTTTTTTTTGTTGCACTTTTAGAGTTTTAAT [GTGCAC_site9519] | 8.56 ± 0.41
66 | TAATAAATAGGACACACACACATATTTATATATCAT [CACACA_site6771] | 8.66 ± 0.46

Row | Sequence | gcPBM binding intensity (ln)
67 | ACACATCAAATATAAAAAAAAAATAACTATAAATAA [CACACA_negctrl_site587] | 8.48 ± 0.39
68 | TATAAAAGTGGACACACACACATATATATATATATA [CACACA_site4673] | 10.2 ± 0.64
69 | TTGCAAAATTGTTTTATCACAAATATATACTTAATA [CACACA_negctrl_site403] | 8.19 ± 0.38
70 | AAAAAAAAAAAACACACACACACATACCCATACATA [CACACA_site5575] | 8.57 ± 0.52
71 | TTTCTTTTTATATTCACACATAAATATATATATATA [CACACA_site6053] | 9.81 ± 0.28
72 | ATATAAAAATATAATACACACATAAAATATATTATA [CACACA_site969] | 8.53 ± 0.32
73 | TATATAAGGAAATATTGTACTTTTATATTTATATTA [XGTACX_site3814] | 8.04 ± 0.33
74 | ATAATAATAATAAAAAGTACAAATTATTATATATAT [XGTACX_site5160] | 8.81 ± 0.29
75 | TGTATGCTTACATAATGTACGGAAAAATAAAGGCAT [XGTACX_site6923] | 9.27 ± 0.35
76 | ATATATAAATAATGTTGTACGTATTTCAAAAGTATG [XGTACX_site3363] | 8.53 ± 0.38
77 | TGCTCTCTCTTGTTGTGTACATAATACAATATATAT [XGTACX_site7427] | 9.16 ± 0.3
78 | ATATATTTGTATAATAGTACGTACAGGCAAAATATA [XGTACX_site7396] | 9.23 ± 0.42
79 | TACATTTAAAAAAAAACACACATATATATATATATA [CACACA_site2535] | 10.3 ± 0.33
80 | TTTTATGCGCAATAAGTGCATTTAAAATATATATAT | 9.3 ± 0.31
81 | TCCACTTAACTCAATTGTACAAAAATAAAAATTAAA [XGTACX_site855] | 8.35 ± 0.48
82 | ATAATATATATATATATATTATCAAATATATATATA [GTGCAC_negctrl_site346] | 9.22 ± 0.25
83 | TGTGTATATCGATAAAGTACATTTGAAAAGTGACTT [XGTACX_site6957] | 8.55 ± 0.37
84 | GTAATATGTATCCATACACACATACAGTTTATTTGC [CACACA_site6540] | 8.6 ± 0.28
85 | GTATTAATATATAATTGTACTTTTTTTTTTTTTTTT [XGTACX_site4369] | 8.45 ± 0.29
86 | AAAAAAAACGGACACACACACATTCAATATAAAACA [CACACA_site4189] | 8.69 ± 0.65
87 | TTCACATGAAGAATTAAAATAAAACTAGGAAATTAA [CACACA_negctrl_site1047] | 8.39 ± 0.45
88 | ATCACCAAATGGGCTATACAACAATGAGAAATGGTA [CACACA_negctrl_site48] | 8.7 ± 0.63

Source: the supplement of paper PMC11417369
